Data from paper PMC12136788.
This is one part of the list.

T1: UNK ZnF1-6 (called full-length) (human, UniProt Q9C0B0 30-357)
T1 sequence: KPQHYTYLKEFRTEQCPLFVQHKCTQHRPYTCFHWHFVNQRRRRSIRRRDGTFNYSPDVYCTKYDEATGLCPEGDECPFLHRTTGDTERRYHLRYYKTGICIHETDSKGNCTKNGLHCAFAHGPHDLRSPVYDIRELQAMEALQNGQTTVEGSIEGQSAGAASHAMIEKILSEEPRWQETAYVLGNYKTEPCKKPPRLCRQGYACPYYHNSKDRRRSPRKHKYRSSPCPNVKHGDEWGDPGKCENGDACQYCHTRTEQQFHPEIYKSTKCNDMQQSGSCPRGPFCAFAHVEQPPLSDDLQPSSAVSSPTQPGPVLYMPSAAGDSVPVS

B1: chr15:41900134:41900198:-|3pUTR|ENSG00000103966|msi1_unk|total|mutant (ssRNA)
RNA: GGGAGUUCUACAGUCCGACGAUCAGGGCACCUGGAGGCAGCAAAGAUUAUCUUAUUUAUUUUAUUUUGUUUUCUGCUAUAUUCCGAGUGGCAAAAAAACCGAGCAGAGGGUUUCUGCUGUCUCCAGACUGUCUACCAAAGAGACAACAGAGGAUUGAGCAUCA
B2: chr8:123014585:123014686:-|3pUTR|ENSG00000136986|msi1|total|mutant (ssRNA)
RNA: GGGAGUUCUACAGUCCGACGAUCGCAGCUAACAUGGGUCCGGUUUAAACCAUGGGGGAUGCAACCCCUUUGCGUUUCAUAUGCCGGCCUACUGGCUUUGUGCCGCUGGAGCCGUUGGGUUGCUUUGUGUCCGGAGGAUCCAGACAACAGAGGAUUGAGCAUCA
B3: chr5:171410733:171410822:+|3pUTR|ENSG00000181163|msi1_unk|total|mutant (ssRNA)
RNA: GGGAGUUCUACAGUCCGACGAUCGUUUUUAAAGAUGGAACUCCACCCUUUGCUUGGUUUUAAGUAUGUAUGGAAUGUUAUGACCGGACACCGCCGCCGCGGUGGUCAGACAUGGAAAUGGUGGGGAGACAAAAAUAUACAUGUCAACAGAGGAUUGAGCAUCA
B4: chr7:44573567:44573675:-|CDS|ENSG00000136271|unk|FALSE|unique (ssRNA)
RNA: GGGAGUUCUACAGUCCGACGAUCCGCACGGGCUCCGGGAAGACGGCCGCUUAUGCUAUUCCGAUGCUGCAGCUGUUGCUCCAUAGGAAGGCGGUGGGUAACGAGAGAGCUGAGGGGAGGAAGGAGGCAAGCUCCAAAAGCCUGCAACAGAGGAUUGAGCAUCA
B5: chr1:155884367:155884468:+|3pUTR|ENSG00000132718|msi1|FALSE|unique (ssRNA)
RNA: GGGAGUUCUACAGUCCGACGAUCUGGGUCUACUGAGCAGUGGGUGCUGAGGUGACAGGGGAGGAACCAGUUGUUCUGUAGCCUAGGAACUGCCUCAGUGUCUUUGCCAGAAAAAGGCAAAGAGGCGGACAGUGCAGGGCUCCUCAACAGAGGAUUGAGCAUCA
B6: chr16:11872726:11872856:-|3pUTR|ENSG00000103342|msi1_unk|total|mutant (ssRNA)
RNA: GGGAGUUCUACAGUCCGACGAUCACAUAAUUGCCUACAAUAAUGAAAACCUACAGGAAUUUUUUUAUUUUUCAUUUUCCCCUCCGGCAUAUUCCGUAUUUUUCCCCCAGGCAGAUCAUUCUGAGUGUGCGAGUGUGUGUGCACCAACAGAGGAUUGAGCAUCA
B7: chr13:98915392:98915499:-|CDS|ENSG00000088387|unk|FALSE|unique (ssRNA)
RNA: GGGAGUUCUACAGUCCGACGAUCUCAUUUCAGAACAACAAAGUCAGGCGUUUUGCUUUUGAGCUCAAGAUGCAGGACAAAAGUAGUUAUCUCUUGGCAGCAGACAGUGAAGUGGAAAUGGAAGAAUGGAUCACAAUUCUAAAUCAACAGAGGAUUGAGCAUCA
B8: ENSG00000198589:be:win_3251|CDS|ENSG00000198589|bound_else_gene|NA|bound_elsewhere_windowed (ssRNA)
RNA: GGGAGUUCUACAGUCCGACGAUCCUCCUUCAGAAGAGGAUGCCUCAGAGAUGCCAGAAUUCUUGGAUAAAUCUAUAGUAGAGGAAGAGGAAGAUGAUGAUUAUGUGGAACUGAAAGUAGAAGGCAGUCCUACUGAGGAAGCUACAACAGAGGAUUGAGCAUCA
B9: chr7:6691352:6691453:-|CDS|ENSG00000164631|unk|FALSE|bound_elsewhere (ssRNA)
RNA: GGGAGUUCUACAGUCCGACGAUCUACGAAUGUAAUGAAUGUGGAAAGUUAUUCUCCCAGUUGUCAUACCUCACUAUCCAUCAUAGAACUCAUUCAGGAGUAAAACCCUAUGAAUGUAGUGAAUGUGGGAAAACCUUCUACCAGCAACAGAGGAUUGAGCAUCA
B10: chr12:53253816:53253925:+|CDS|ENSG00000182544|unk|total|mutant (ssRNA)
RNA: GGGAGUUCUACAGUCCGACGAUCUCUCUUCAUGUUGACUUUCUCUACCAGCCCAGGCCAGGAGAGUCCGGUGGAGUCCUUCACCGCCUUUCUACUUAUUGAGUUGGCUUGUGGAUUAUACUUUCCCAGCAUGAGCUUCCUACGCAACAGAGGAUUGAGCAUCA
B11: chr12:24812577:24812678:-|3pUTR|ENSG00000060982|msi1|FALSE|unique (ssRNA)
RNA: GGGAGUUCUACAGUCCGACGAUCAUCCAAAGGAGCUUUUUCCUUAUUCUGUCAAGCAUUGAGAUCUUCUUCAGCUUUCAAUGUAGUUGCUAAAUACAAAUAAUGCUACUAGGUAGUGACUAAAUAUAGCAAACACUUCAUCAGCAACAGAGGAUUGAGCAUCA
B12: chr9:37862824:37862925:+|3pUTR|ENSG00000122741|unk|FALSE|unique (ssRNA)
RNA: GGGAGUUCUACAGUCCGACGAUCUAUGCACUAGCCUUGCCCUCUUAGGUUGCAUUCUCUUUAGGCCACUGGUUCUCAAACAUUAGGGUGCACUGUAACCAUUACAGAGCUUGUGAAAAGUGCAGAAACCUGAGCCUCACCUUACAACAGAGGAUUGAGCAUCA
B13: chr3:151442983:151443884:-|CDS|ENSG00000152580|control|control|control (ssRNA)
RNA: GGGAGUUCUACAGUCCGACGAUCUGGUUCGGAGCGAAGAGUAGUAAUGCUUACAAUGGAAGAGCGAGUGACCAGCCCCAGGAUAGAAGCUGCAUCCCAGAAAAGGACUGAAGUGAAUUUUGGGGACAAAUUACUACUGAACUGCAACAGAGGAUUGAGCAUCA
B14: chr9:128633378:128633479:+|3pUTR|ENSG00000197694|msi1|FALSE|bound_elsewhere (ssRNA)
RNA: GGGAGUUCUACAGUCCGACGAUCCUUGCUGCAUGUCCGCUCCUCUGUGUGCUCUCACUUUCCACUGUAACCUUAAGCCUGCUUAGCUUGGAAUAAGACUUAGGAGAAAAUGGUGCUUCACUAACCCGCUUCCGGUCCAGUCACCAACAGAGGAUUGAGCAUCA
B15: chr15:59081107:59081211:+|CDS|ENSG00000157450|unk|FALSE|unique (ssRNA)
RNA: GGGAGUUCUACAGUCCGACGAUCUUCUCAAAUAUCUUCUCAUGCAACAUCUCAUCCUGUGGCACCCCCACCACCAACUCACUUAGCCAGUACAGCUGCACCAAUCCCUCAGCAUCUUCCUCCUACACACCAGCCAAUUUCGCACAACAGAGGAUUGAGCAUCA
B16: chr9:26904889:26904990:-|3pUTR|ENSG00000137055|msi1|total|mutant (ssRNA)
RNA: GGGAGUUCUACAGUCCGACGAUCAUAAUUUCUUGAUUUGUCAUUUAUAAAUCCUAAAGUAUAUUUGUUUAAUGGCCUAUUUUCCGAUGAAGAAAAAGCCAGUUGGUAAGCUGUGUCCGUCAUGUAUCAGUUCAGACAGACGAGCAACAGAGGAUUGAGCAUCA
B17: chr8:6521177:6521410:-|CDS|ENSG00000091879|control|control|control (ssRNA)
RNA: GGGAGUUCUACAGUCCGACGAUCUCAGCUACAGGUGUUAGUAUCCAAGCAAAAUUCCAUCAUUGAAGAACUAGAAAAAAAAAUAGUGACUGCCACGGUGAAUAAUUCAGUUCUUCAGAAGCAGCAACAUGAUCUCAUGGAGACCAACAGAGGAUUGAGCAUCA
B18: chr12:88196262:88196297:+|3pUTR|ENSG00000139324|msi1_unk|total|mutant (ssRNA)
RNA: GGGAGUUCUACAGUCCGACGAUCUGUAUACUUGUUUUUAACUUUAAAUGUAAUUUUUAAUCAGGUAAAGUUUGACACAUGUACCGCUACAUACACACAUUUUUAAUGGUGCUCAUAUAUACUGUAUUUUUUGUUGUUCCGUUUCAACAGAGGAUUGAGCAUCA
B19: chr14:90848141:90848242:-|3pUTR|ENSG00000100784|unk|total|mutant (ssRNA)
RNA: GGGAGUUCUACAGUCCGACGAUCCGAUAACUGGUACUGCCUUUGAUUAAAGGUGAGCUAUAUGGAGUUAAGCAUUUUUAUACCCGUAACUAUUUAUUGAGAAUUUUCAGAAUUCUACCGCUACUUGUCUUUAACAGUUAUAAGCAACAGAGGAUUGAGCAUCA
B20: chr4:159352722:159352837:+|CDS|ENSG00000109756|unk|total|mutant (ssRNA)
RNA: GGGAGUUCUACAGUCCGACGAUCACUGUGGAUAAUUUUUCAGAUUCUGGUCACAGUGAAAUUUCUUCACGAUCCAGUAUUGUCCGCAAUUCGUCUUUUGACUCAGUGCCAGUCUCACUGCACGAUGAGAGGCGCCAGAGGCAUCAACAGAGGAUUGAGCAUCA
B21: chr2:201645282:201645383:-|CDS|ENSG00000082126|unk|total|mutant (ssRNA)
RNA: GGGAGUUCUACAGUCCGACGAUCUACUAUCCAUAUUUUUCUAUUUCUCCUAAAGGAUGAAGACCUACAAGAGAUGGAAAAUUCCGCCCAAAGAAUGGAAACUCAGUUUGGCCAAUUUUUUGAUCAUGUGAUUGUGAAUGACAGCAACAGAGGAUUGAGCAUCA
B22: chrX:152971868:152971969:+|3pUTR|ENSG00000147394|unk|total|mutant (ssRNA)
RNA: GGGAGUUCUACAGUCCGACGAUCUUCCCUUACAGGUAUGUUGGCAUGUGUUGGAAAAUUUACACAAUCCGGUUUAAAUUCAGCCGGAUGUGAUUUCCGGAUGCUACUGAUCAAAGUGAUAUCUGUGUCUGUUGGAAUCUUGAUCAACAGAGGAUUGAGCAUCA

Target: T1, UNK ZnF1-6 (called full-length)
Test: nsRBNS (natural sequence RNA bind-n-seq); RBNS binding buffer (assumed for nsRBNS): 25 mM Tris pH 7.5, 150 mM KCl, 3 mM MgCl2, 0.01% Triton X-100, 500 ug/ml BSA, 20 U/ml SUPERase-In, 4 C; UNK is unkempt and MSI1 is Musashi-1; names of the RNAs are library labels; protein concentration not given here; high values mean tight binding

In order of falling binding signal:
1. B1  1.3 enrichment R
2. B15  1.14 enrichment R
3. B6  1.06 enrichment R
4. B3  0.885 enrichment R
5. B8  0.845 enrichment R
6. B4  0.771 enrichment R
7. B5  0.745 enrichment R
8. B13  0.733 enrichment R
9. B19  0.647 enrichment R
10. B14  0.581 enrichment R
11. B18  0.573 enrichment R
12. B11  0.559 enrichment R
13. B7  0.548 enrichment R
14. B21  0.521 enrichment R
15. B12  0.503 enrichment R
16. B10  0.501 enrichment R
17. B17  0.481 enrichment R
18. B2  0.478 enrichment R
19. B16  0.378 enrichment R
20. B20  0.333 enrichment R
21. B22  0.228 enrichment R
22. B9  0.206 enrichment R
